In the supplement of paper PMC3334620:
The full ranking holds about 33,000 sequences; the median of “E-score (-0.5 to 0.5)” is about -0.036, and the highest 2% start at about 0.37. The list shows a part of the results.

Biological target: T1, Yer064c (UniProt P40041)
T1 sequence: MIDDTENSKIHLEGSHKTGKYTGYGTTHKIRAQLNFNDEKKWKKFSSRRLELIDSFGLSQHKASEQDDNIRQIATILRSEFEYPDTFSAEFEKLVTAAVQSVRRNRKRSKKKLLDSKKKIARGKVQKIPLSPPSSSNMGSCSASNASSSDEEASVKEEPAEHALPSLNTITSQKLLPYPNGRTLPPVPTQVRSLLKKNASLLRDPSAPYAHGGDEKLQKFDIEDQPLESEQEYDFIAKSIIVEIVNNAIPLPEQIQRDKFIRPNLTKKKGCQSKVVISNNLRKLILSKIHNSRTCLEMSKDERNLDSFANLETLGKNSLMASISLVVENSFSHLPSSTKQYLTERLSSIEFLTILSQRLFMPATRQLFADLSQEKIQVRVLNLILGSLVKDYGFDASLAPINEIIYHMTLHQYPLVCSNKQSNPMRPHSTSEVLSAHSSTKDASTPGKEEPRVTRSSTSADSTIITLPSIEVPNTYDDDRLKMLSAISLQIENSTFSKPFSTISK
Assay: PBM E-score (8-mer binding enrichment) (E-score (-0.5 to 0.5)); higher = stronger / more preferred TF binding; most listed sequences are background and not binding sites
Details: protein concentration: 200 nM; construct: GST-full length
Procedure: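 Universal 'all 10-mer' protein binding microarrays (Agilent AMADID 015681) probed with GST-tagged S. cerevisiae TFs (full-length or DBD) made by in vitro transcription/translation (PURExpress), about 100-200 nM. Bound TF was detected with fluorescent anti-GST. Each ungapped 8-mer (which stands for itself and its reverse complement) is scored by the PBM enrichment score (E-score), a modified Wilcoxon-Mann-Whitney statistic from -0.5 to +0.5, computed with the Universal PBM Analysis Suite. Scale: above 0.35 generally sequence-specific binding.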

Sequence	PBM E-score
ATTGTTCA	0.00489
CTAGGCGA	-0.0827
GACTTTAC	0.234
ACGGGAAC	-0.176
ACTGAGTG	0.161
GAAGTGTC	0.105
AGGTTTCA	-0.0119
ACTAAGCA	0.246
CCTGCTGC	-0.138
CATTCTAA	0.164
AATCACTC	0.385
ATCAGAGA	0.207
ACGCACCA	-0.24
TACTATCA	0.0134
GGGGCAGA	-0.21
GTTTCGCA	-0.0949
CATATACC	-0.00252
ACCCGCGT	-0.129
AAGCTGCA	-0.157
AAGGTGAG	0.121
AAGCCTCT	-0.154
CAAATTGA	-0.0396
TACGAACA	0.0731
CAACCTCA	-0.202
GCCCTTGA	-0.0137

Sequence	PBM E-score
CTACTGCC	-0.323
CGGAAGAA	-0.0182
CCCGCAAC	-0.00788
TAGATGAA	0.00973
CGGCAGGA	-0.239
GAGGCTAA	-0.0602
AAAAACTG	-0.174
ACGCTAGT	0.0244
CGGTGGCC	-0.25
ATCTATTG	0.107
TACGACTA	0.415
GCCACTTA	0.0189
GAGGTGCC	-0.321
GGGAATGA	0.0959
AGACGCGG	-0.234
CCCCACTA	-0.141
CAGCATAC	-0.21
GCGCGACA	-0.0346
GCACCAAC	-0.133
CAGAGCTC	-0.051
ACGGTTCA	-0.0012
GAGTTACC	0.12
GAACCGTC	-0.209
AGGCACAA	-0.111
AGAGATCT	0.01

Sequence	PBM E-score
ACGGGCTC	-0.206
ACAACGCG	-0.216
GAGCTCGC	-0.155
AGGGAACC	-0.171
CGATCCTA	-0.245
GAGTGTAA	0.114
CCAGTATC	-0.244
AAGGAAAA	-0.126
AAGGCGGC	-0.229
AGGGCAAT	-0.154
AGGGTAAA	0.0915
CCAATCAA	0.0424
AACTTAAT	0.122
ACATAGTA	0.0874
AACATATG	-0.0652
CCTTGAGA	0.175
CTATGCGA	0.0225
ATAATCAT	0.45
CATGACCA	0.0578
ACCAGATC	-0.209
GGCTAGCA	-0.076
CCCGTGCG	-0.119
ATGACGCC	-0.208
ACCTACCT	0.0781
ATCGAACG	-0.225

Sequence	PBM E-score
AAATATGA	0.276
ACATCTGC	-0.176
CTGAGGAC	0.0663
GGTGTCGA	0.046
GCGCAGTA	-0.128
AGAACAGG	-0.184
CATAATCC	-0.0164
TTGTTAAA	0.0448
ATATCTTC	0.0239
GAATGGGA	-0.00706
CTTGCCCC	-0.361
GATCGTCC	-0.0844
ACTACGTC	0.0287
CCGAATTA	-0.137
CACGGTTC	0.0566
AAGCACCC	-0.225
CTTTAAAA	0.174
AATCTGAG	0.108
ACGGTCTG	-0.166
CAATACGA	0.0923
GAGTATAC	0.11
GTGCCCAA	-0.0902
GCCTTGCC	-0.103
CAGCTACA	-0.165
GACTAAGC	0.42

Sequence	PBM E-score
CGGTTAGC	-0.0499
GGGACAAC	-0.202
CGTTAATA	0.0159
ATTAAGTA	0.181
GACTGTCC	0.169
CAAGCTTA	0.0225
GCCGGCCC	-0.321
GGGAAAAC	-0.345
CAATCAGG	0.218
TATGACAA	-0.019
ATTGCAAA	0.0468
ACCATTCG	0.052
CGTAAGTC	0.266
ATTTGTTG	-0.0426
AATGGAGA	-0.0502
AGGCAAAG	-0.157
ACTAGTCT	0.345
CGGTAGGA	-0.0115
GCCGCCGA	-0.114
ATTCACGA	0.212
GACCCTGC	-0.262
AGGGATAA	0.093
TACAAGTA	-0.00163
GCACCGGC	-0.218
AGGGCGTA	-0.0746

Sequence	PBM E-score
ATCCTACG	-0.0401
CGTGCCGA	-0.237
ATAATCCA	0.0423
ATAGGGAG	-0.0477
CCCACTTC	-0.146
ATATCCAG	-0.135
ATCTACAT	0.16
GGGTACGA	0.028
TAAACATA	0.164
AAACATAA	0.0547
CCGGTCGA	-0.237
GATGTTCA	-0.0838
ACAAGTTG	-0.0935
GACGGTCC	-0.324
CAACGGGC	-0.0805
CCGGAGCG	-0.242
AACAAACA	0.00034
GCCAACGA	-0.245
AAATTTAG	0.167
CCTGCGTC	-0.213
CTGTTATA	-0.0108
AAGCTATT	-0.16
ACGACGAG	0.0377
GATTGTAA	0.159
CAACTTAG	0.0981

Sequence	PBM E-score
AAACGGAG	-0.185
CCGAAGTC	0.251
CTACGCCA	0.0287
GCACACCC	-0.0608
ACTACGCT	0.125
TCAGGGCA	-0.124
TGCATCCA	-0.0163
TCTGTTAA	0.0454
AGCACGCA	-0.129
ATTAGAAC	0.052
ACATGAGA	0.284
AAACCCCT	-0.219
ACGGGTTG	-0.128
GGTAAGCA	-0.159
ATGGGCGC	-0.191
GTCCCCAC	-0.0661
GAGTGGTA	0.0154
ATGTCAAT	-0.0622
AGCCTGCG	-0.212
AATCGAAC	-0.137
ATCTTCGG	0.0804
GTTACAAC	0.0394
